Measurements taken from PubChem BioAssay AID488969 (Vanderbilt High Throughput Screening Facility, 2010).
Over roughly 110,000 compounds, “z-score” has its median near -0.1; the highest 2% begin near 2. Some of the results follow. The source made the active and inactive calls.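 How the source made its calls: active means z-score in the third read window above 3 or below -3; inactive means the rest.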

These compounds were tested against Metabotropic glutamate receptor 8 (Rattus norvegicus) (UniProt P70579) (assay: rat mGluR8 modulators via GIRK flux, primary screen, cell-based, thallium flux, HTS (AID 488969)). Conditions: HEK293 rat mGluR8, GIRK (G protein-gated inwardly rectifying potassium channel) thallium flux, FluoZin2; at 10 µM; stronger effect = higher value; submaximal glutamate (EC20) added with thallium.
UniProt P70579, sequence (P70579 whole entry, looked up): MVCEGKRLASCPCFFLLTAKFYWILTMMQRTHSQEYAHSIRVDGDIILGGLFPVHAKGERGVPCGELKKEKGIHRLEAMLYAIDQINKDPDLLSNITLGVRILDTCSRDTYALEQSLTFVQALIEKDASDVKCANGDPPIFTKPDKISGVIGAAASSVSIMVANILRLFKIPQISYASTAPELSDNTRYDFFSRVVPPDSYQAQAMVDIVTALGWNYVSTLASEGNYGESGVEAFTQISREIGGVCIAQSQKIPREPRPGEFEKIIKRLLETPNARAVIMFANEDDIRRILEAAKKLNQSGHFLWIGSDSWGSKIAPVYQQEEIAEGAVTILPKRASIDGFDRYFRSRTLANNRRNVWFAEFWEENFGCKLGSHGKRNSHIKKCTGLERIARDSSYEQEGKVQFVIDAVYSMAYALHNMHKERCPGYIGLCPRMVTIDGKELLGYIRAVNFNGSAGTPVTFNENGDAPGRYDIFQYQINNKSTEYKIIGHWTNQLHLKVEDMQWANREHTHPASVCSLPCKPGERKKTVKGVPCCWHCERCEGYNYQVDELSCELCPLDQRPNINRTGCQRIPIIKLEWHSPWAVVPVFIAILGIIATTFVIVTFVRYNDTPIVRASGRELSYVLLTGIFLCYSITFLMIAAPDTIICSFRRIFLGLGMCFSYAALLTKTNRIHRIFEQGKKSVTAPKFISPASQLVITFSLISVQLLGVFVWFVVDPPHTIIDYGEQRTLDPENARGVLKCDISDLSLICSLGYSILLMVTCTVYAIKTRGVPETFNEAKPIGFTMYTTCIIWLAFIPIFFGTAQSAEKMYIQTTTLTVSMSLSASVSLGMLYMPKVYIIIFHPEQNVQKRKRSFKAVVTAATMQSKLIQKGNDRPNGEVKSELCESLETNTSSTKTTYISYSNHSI

SMILES	z-score
CC1CCCCC1NC(=O)c1nn(C)c(=O)c2ccccc12 (stereo not given)	-0.289
O=C(CCCOc1ccc(Cl)cc1Cl)Nc1cccnc1	-0.0915
Cn1nc(-c2ccc(N3CCCCC3)c(NC(=O)c3ccco3)c2)c2ccccc2c1=O	-1.88
Cc1ccc(-c2noc(COc3ccc4c(c3)OCO4)n2)cc1	-0.183
Cc1nn(-c2ccc(F)cc2)c(Cl)c1/C=C/C(=O)OCC(=O)Nc1ccc(F)cc1F	-0.164
COc1ccc(/C(O)=C2\C(=O)C(=O)N(c3cc(C)on3)C2c2cccc(OC)c2OC)cc1C (stereo not given)	-0.187
Cc1cccc(C)c1NC(=O)CSc1nc2ccccc2c(=O)[nH]1	0.493
Cc1cccc(-n2c(=O)[nH]c3c(C(N)=O)nc(C(C)C)nc32)c1	-0.0464
CCOC(=O)/C(=C/c1ccc(OC(=O)c2ccccc2)cc1)C(C)=O	0.777
CCOC(=O)C(NC(=O)c1ccccc1)(Nc1nnc(C)s1)C(F)(F)F (stereo not given)	-0.152
COC(=O)c1cc(C)sc1NC(=O)CCCC(=O)O	-0.45
O=C(Nc1sc2c(c1C(=O)c1ccc(Cl)cc1)CCCC2)c1cccnc1	-0.771
O=C(Nc1ccccc1)ON=C1c2ccccc2-c2ccccc21	-0.235
Cc1cc2oc(=O)cc(CN3CCCCC3C)c2c(C)c1Cl (stereo not given)	0.58
CCOC(=O)c1cc(-c2ccccc2)sc1NC(=O)C(C)(C)C	-0.178
Cc1cc(C(=O)N2CCN(c3ccccc3)CC2)c(C)o1	0.825
CC(C)CNC(=O)[C@H](Cc1ccccc1)NC(=O)c1ccco1	1.28
CCNCc1nc2cc(OC)c(OC)cc2c(=O)[nH]1	-0.0665
CCC(C)c1ccccc1NC(=O)c1cccnc1 (stereo not given)	-0.0512
COc1ccc(CN2C(=O)CN=C2Nc2cc(C)ccc2C)cc1	0.232
CCc1ccc(OCC(=O)Nc2cccc3c2CCCC3)cc1	-0.0837
O=C(CN(C(=O)CCC(=O)Nc1nccs1)c1ccc2c(c1)OCO2)NCC1CCCO1 (stereo not given)	-0.616

SMILES	z-score
COC(=O)c1c(O)cc(C(C)(C)C)n(-c2ccccc2)c1=O	0.104
CCN(CC)S(=O)(=O)c1ccc(/C=C/C(=O)Nc2ccc(Br)cc2F)cc1	-0.05
CCC(=O)c1ccc(OCc2ccc(C(=O)OC)cc2)c(OC)c1	0.0803
COc1ccc(NC(=O)COC(=O)c2ccc(NS(=O)(=O)/C=C/c3ccccc3)cc2)cc1	-0.128
Cc1ccc(NCN2C(=O)C3CC=CCC3C2=O)cc1 (stereo not given)	-0.247
COc1ccc(NC(=O)CSc2ncn[nH]2)c([N+](=O)[O-])c1	-0.152
COc1ccc(-c2noc(CN3CCOCC3)n2)cc1OC	-0.408
Cc1ccc(-c2nc3cc(NC(=O)C(C)C)ccc3o2)cc1C	0.689
C=CCn1c(Cc2cccc3ccccc23)n[nH]c1=S	0.0356
CCN(CC)S(=O)(=O)c1cccc(C(=O)NC(C(=O)Nc2nnc(C)s2)C(C)C)c1 (stereo not given)	-0.343
COc1cccc(-n2c(Cn3nc(C(F)(F)F)cc3C)n[nH]c2=S)c1	0.929
COC(=O)COC(=O)c1ccc(-n2nnnc2SC)cc1	-0.306
CC(C)NC(=O)C1CCCN(S(=O)(=O)c2cccs2)C1 (stereo not given)	-0.102
Cc1ccc(S(=O)(=O)N/N=C\c2ccc([N+](=O)[O-])o2)cc1	0.118
CCC(C)[C@H](NC(=O)N1CCCC1)C(=O)OC (stereo not given in full)	0.194
COc1ccc(OC)c(CNC(=O)C2CCCN(c3nc4ccccc4o3)C2)c1 (stereo not given)	-0.601
Cc1ccc(C)c(-n2nnnc2SCC(=O)NCCC2=CCCCC2)c1	-0.195
O=C(NCc1ccc(N2CCCC2=O)cc1)c1cnccn1	-0.188
Cc1nc2ccc(C(=O)O)cc2[nH]1	-1.01
Cc1cc(C(=O)CSc2n[nH]c(N)n2)c(C)n1C1CC1	0.00139
CC(Oc1ccccc1Cl)C(=O)/C=C/N(C)C (stereo not given)	0.236
N#CC1=C(N)Oc2n[nH]c(-c3cccs3)c2C1c1ccoc1 (stereo not given)	active: -3.2

SMILES	z-score
O=C(N/N=C/c1ccccc1)c1cc(=O)[nH]c2ccccc12	-0.147
O=C(C1CCCN(S(=O)(=O)Cc2ccccc2)C1)N1CCC(Cc2ccccc2)CC1 (stereo not given)	-0.416
N#CC1=C(SCC(=O)NCc2ccccc2)NC(=O)CC1c1ccco1 (stereo not given)	1.77
COc1cc(Br)c(C(C)NC(=O)c2ccccc2)cc1OC (stereo not given)	0.122
CC(=O)NC(C)C(=O)OCC(=O)Nc1ccc(Br)cc1 (stereo not given)	0.183
CCOC(=O)N1CCN(CC(O)COc2ccccc2C(C)CC)CC1 (stereo not given)	-0.362
Cc1cccc(NC(=O)c2cc(NC(=O)c3ccco3)ccc2Cl)n1	-0.288
Cc1ccccc1NC(=O)CSC1=C(C#N)C(c2ccsc2)CC(=O)N1 (stereo not given)	0.153
Cn1c(=O)cc(SCC(=O)Nc2ccccn2)c2ccccc21	1.2
CCOC(=O)N1CCN(c2cc(=O)n(Cc3ccc(F)cc3)c(=O)[nH]2)CC1	-0.547
CC(=O)Nc1sc2c(c1C(=O)N1CCOCC1)CCCCC2	-0.374
Nn1c(-c2cccs2)nc2sc3c(c2c1=O)CCCC3	0.457
COc1ccc(C(=O)NCC(=O)Nc2ccccc2)cc1OC	0.402
CC(C)c1ccccc1NC(=S)NC1CCN(Cc2ccccc2)CC1	-0.495
CCCn1c(=N)n(CC(=O)OCC)c2ccccc21	-0.118
Cc1c(CCC(=O)O)c(=O)n2c([nH]c3ccccc32)c1C#N	-0.166
COc1cccc(CN(CC(=O)NC2CCCC2)C(=O)Cn2nnc(-c3cccs3)n2)c1	-0.121
Cc1cc(C)cc(NC(=O)C2CCCN(c3nccc(C)n3)C2)c1 (stereo not given)	0.107
O=C1NC2CCCCC2NC1CC(=O)N1CCN(c2ccccc2)CC1 (stereo not given)	-0.0836
CCOc1nnnc2c1sc1nc(N3CCOCC3)c3c(c12)CCCC3	0.00985
CC(NC(=O)Cn1c(=O)oc2cc(S(=O)(=O)N3CCCC3)ccc21)c1ccccc1 (stereo not given)	-0.00219
O=C(NCc1ccco1)C1CC(c2cccc([N+](=O)[O-])c2)=NO1 (stereo not given)	-0.0826

SMILES	z-score
COc1ccc2cc3c(N)nn(C(=O)Cc4ccccc4OC)c3nc2c1	-0.119
O=C(N/N=C/c1ccc(OC(=O)c2cccs2)cc1)c1ccc(F)cc1	-0.195
COc1ccc(CNc2nc(-c3ccccc3)nn2C(=O)c2cccs2)cc1	0.501
CCCc1cc(=O)oc2c(C)c(OCC(=O)c3ccc(N4CCCC4)cc3)ccc12	-1.57
CCCSc1nnc(Nc2ccccc2C)s1	active: 4.96
Cc1ccc(C)c(NC(=O)COC(=O)c2cccc3c2C(=O)c2ccccc2C3=O)c1	-0.271
CCOc1cccc2cc(-c3nnc(NCc4ccc5c(c4)OCO5)s3)c(=O)oc12	-0.559
Cc1cc(C)c(S(=O)(=O)Nc2ccc(OCC(=O)O)cc2)c(C)c1	-0.256
CS(=O)(=O)c1ccc2nc(NC(=O)CN3CCCCCC3)sc2c1	0.118
Cc1cc(NC(=O)CCc2ccc(C)o2)no1	0.322
CCOP(=O)(OCC)c1nc(/C=C/c2ccccc2)oc1NCc1ccccc1	-2.18
CCNC(=O)c1ccc(NS(=O)(=O)c2ccccc2)cc1	-0.0317
CCN1CCN(c2nc3c(C)cccn3c(=O)c2/C=C(\C#N)S(=O)(=O)c2ccccc2)CC1	-0.231
N#CC1=C(SCc2ccc(C#N)cc2)N=C(N)C(c2nc(-c3ccccc3)cs2)C12CCCCC2 (stereo not given)	0.177
CCSc1ncc(/C=N/Nc2ccccc2)n1C	-0.292
COc1ccc2c(CC(=O)Nc3ccc(OC)c(S(=O)(=O)N4CCOCC4)c3)coc2c1	0.0443
CC1CCC/C(=N\Nc2ccc(Cl)c(C(=O)O)c2)C1 (stereo not given)	0.274
O=C1c2ccccc2C(=O)c2c1cccc2N1CCN(Cc2ccccc2)CC1	-0.0703
Cc1cc(C)c(NC(=O)/C(=C/c2ccccc2)c2ccccc2)c(C)c1	-0.887
Cc1ccc(NC(=O)/C(=C\c2cccc([N+](=O)[O-])c2)NC(=O)c2cccs2)cc1	-0.0227
CCN(CC)c1ccc(NC(=O)Cn2ncc3c(C)n(Cc4ccccc4F)c(C)c3c2=O)c(C)c1	-0.325
Cc1nnc(N2C(=O)C(O)=C(C(=O)c3ccco3)C2c2ccc(C(C)(C)C)cc2)s1 (stereo not given)	-0.554

SMILES	z-score
Brc1ccc(-n2cccc2/C=N/n2cnnc2)cc1	-0.152
Cc1ccc(C(=O)NC(Cc2c[nH]c3ccccc23)C(=O)O)cc1 (stereo not given)	1.07
Cc1ccccc1OCC(=O)Nc1cc(Cl)ccc1Oc1ccccc1	-0.233
N#Cc1c(NC(=S)NC(=O)c2ccccc2)sc2c1CCC2	0.849
COc1cc2c(cc1OC)C(c1cccc(OC)c1OC)CC(=O)N2 (stereo not given)	0.0414
Cc1ccc(N2CC(C(=O)Nc3ccncc3)CC2=O)cc1 (stereo not given)	-0.196
O=[N+]([O-])c1ccc(/C=C/C2=NN(c3ccccc3)C(c3ccco3)C2)cc1 (stereo not given)	-0.0906
COc1cc(C2C3=C(CC(C)(C)CC3=O)N(C)C(=O)N2C)cc(OC)c1OC (stereo not given)	0.176
O=C(COC(=O)c1ccc(N2CCOCC2)c([N+](=O)[O-])c1)Nc1ccc2c(c1)OCO2	-0.12
COc1cc(OC)c(NC(=O)CCc2ccccc2)cc1Cl	-0.786
Cc1c(=O)n(OCc2ccccc2)c2ccccc2[n+]1[O-]	-0.129
O=C(CN1CCN(c2ccccc2Cl)CC1)NC1CCCc2ccccc21 (stereo not given)	-0.381
COc1cccc(Cn2cnc3c(NS(=O)(=O)c4ccc(Cl)cc4Cl)c(C)c(C)cc32)c1	1.09
COc1ccccc1CNC(=O)c1ccc(S(=O)(=O)N2CCCC2)cc1	1.01
COc1ccccc1NS(=O)(=O)c1ccc(O)cc1	0.0186
C=CCN(c1ccccc1)S(=O)(=O)c1cccc(C(=O)Oc2ccc3c(C)cc(=O)oc3c2)c1	-0.205
Cc1ccc(CNC(=O)C2CCC(=O)N2C2CCCCC2)cc1 (stereo not given)	-0.357
CC(Oc1ccc(Cl)cc1)c1ccnn1S(C)(=O)=O (stereo not given)	1.68
Cc1c(NC(=O)C(C)N2C(=O)C3C4C=CC(C4)C3C2=O)c(=O)n(-c2ccccc2)n1C (stereo not given)	0.0248
CCOC(=O)/C(=C\c1cn(C)c2ccccc12)[N+](=O)[O-]	-0.094
C=CC(O)(C#CCN(CC)CC)c1ccccc1 (stereo not given)	0.2
Cc1ccc(CN(C(=O)c2cc3ccccc3oc2=O)C2CCS(=O)(=O)C2)cc1 (stereo not given)	-0.00405
